In PubChem BioAssay (NCATS):
Values joined by “and” are separate entries in the source; they are usually repeats but may differ in a detail not shown here. Equal values may be shown once. The inconclusive results got no clear call from the source; some entries with a clear call stand among them for comparison. A potency beside an inconclusive call is a rough fit, not a confirmed value. Active and inactive are the calls of the source. Calls follow the shape of the dose curve; as a rule, active = well fitted curve in the direction sought with a large enough effect; inconclusive = small, poorly fitted or top-dose-only effect, or another doubt; inactive = no such curve, though single readings can be large; an effect the other way counts as inactive or inconclusive.

How the values were obtained:
[1] = qHTS of pediatric cancer cell lines to identify multiple opportunities for drug repurposing: Primary screen for A673 cells (AID 1347092); settings: A673 Ewing sarcoma viability, CellTiter-Glo ATP luminescence, 48 h; activity change, negative = cytotoxic: at 46 µM (top of the series) unless noted; also: nearly all actives have a fitted effect of over 45% in size
Method in brief: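 A673 cells (500-1,000 cells/well) were treated 48 hours at 37 degrees C with compounds at 11-point (0.78 nM to 46 µM) or 8-point (0.59 nM to 46 µM) dilutions. Viability read by CellTiter-Glo luminescence; concentration-response curves fitted.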

[2] = qHTS of pediatric cancer cell lines to identify multiple opportunities for drug repurposing: Primary screen for SK-N-MC cells (AID 1347093); settings: SK-N-MC viability, CellTiter-Glo luminescence, 48 h; activity change, negative = cytotoxic: at 46 µM (top of the series)
Method in brief: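 Metabolically active cells were quantified by ATP-dependent luminescence (CellTiter-Glo, 15 min at room temperature) following 48 h treatment. Cells had been plated at 500-1,000 per well and settled for 5 h beforehand.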

[3] = qHTS of pediatric cancer cell lines to identify multiple opportunities for drug repurposing: Primary screen for Saos-2 cells (AID 1347097); settings: Saos-2 viability, CellTiter-Glo ATP luminescence, 48 h; activity change, negative = cytotoxic: at 46 µM (top of the series); also: nearly all actives have a fitted effect of over 40% in size
Method in brief: (§1)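 CRCs from 8- or 11-point titrations (lowest final 0.59 nM NPC, 0.78 nM MIPE). Cell viability: CellTiter-Glo after 48 h incubation, 15 min room-temperature development, luminescence imaging.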

[4] = qHTS of pediatric cancer cell lines to identify multiple opportunities for drug repurposing: Primary screen for SK-N-SH cells (AID 1347098); also: nearly all actives have a fitted effect of over 65% in size;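 as to activity change, negative = cytotoxic: DMSO served as neutral control and bortezomib at 2.3 µM as positive control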
Method in brief: (§2)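 Cells (500-1,000/well) rested 5 h, then received compounds for 48 h; metabolically active cells were measured by CellTiter-Glo luminescence. Final concentrations spanned up to 46 µM (MIPE, 11-point) or 0.59 nM-46 µM (NPC, 8-point) in primary screens, 11-point in follow-ups.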

[5] = qHTS of pediatric cancer cell lines to identify multiple opportunities for drug repurposing: Primary screen for NB1643 cells (AID 1347099); also: nearly all actives have a fitted effect of over 50% in size
Method in brief: as §1

[6] = qHTS of pediatric cancer cell lines to identify multiple opportunities for drug repurposing: Primary screen for LAN-5 cells (AID 1347100); settings: LAN-5 neuroblastoma viability, CellTiter-Glo luminescence, 48 h; activity change, negative = cytotoxic: at 46 µM (top of the series)
Method in brief: (§3)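 Viability after 48 h compound treatment at 37C, 500-1,000 cells/well, read as ATP luminescence with CellTiter-Glo. Primary screens used 11-point (MIPE, 0.78 nM-46 µM) or 8-point (NPC, 0.59 nM-46 µM) final concentrations; follow-up screens used 11-point dilutions.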

[7] = qHTS of pediatric cancer cell lines to identify multiple opportunities for drug repurposing: Primary screen for BT-12 cells (AID 1347101); also: nearly all actives have a fitted effect of over 25% in size
Method in brief: as §2

[8] = qHTS of pediatric cancer cell lines to identify multiple opportunities for drug repurposing: Primary screen for NB-EBc1 cells (AID 1347095)
Method in brief: as §1

[9] = qHTS of pediatric cancer cell lines to identify multiple opportunities for drug repurposing: Primary screen for BT-37 cells (AID 1347094)
Method in brief: as §1

[10] = qHTS of pediatric cancer cell lines to identify multiple opportunities for drug repurposing: Primary screen for U-2 OS cells (AID 1347096); also: nearly all actives have a fitted effect of over 50% in size
Method in brief: as §3
Potency is read from the fitted curve at half-maximal effect; tags tell the direction and shape of the fitted curve.

## COc1ccc(C2Sc3ccccc3N(CCN(C)C)C(=O)C2OC(C)=O)cc1 (centres undefined)
[1]
  Potency: inconclusive: 29.6 µM [cytotoxic, single point]
[2]
  Potency: inconclusive: 26.4 µM [cytotoxic, single point]
[3]
  Potency: inconclusive: 18.7 µM [cytotoxic, partial curve]
[4]
  Potency: inconclusive: 24.1 µM [cytotoxic, single point]
[5]
  Potency: inconclusive: 29.6 µM [cytotoxic, single point]
[6]
  Potency: inconclusive: 37.2 µM [cytotoxic, single point]
[7]
  Potency: inactive

## CNC(=O)c1ccc(C)c(-n2c(C)cc(OCc3ccc(F)cc3F)c(Br)c2=O)c1
[1]
  Potency: inconclusive: 18.7 µM [cytotoxic, partial curve]
[2]
  Potency: inconclusive: 37.2 µM [cytotoxic, partial curve, poor fit]
[8]
  Potency: inconclusive: 23.5 µM [cytotoxic, single point]
[3]
  Potency: inconclusive: 0.469 µM [cytotoxic, partial curve, poor fit]
[6]
  Potency: active: 20.9 µM
[7]
  Potency: inconclusive: 6.85 µM [cytotoxic, partial curve]

## C[C@H](NC(=O)[C@@H](O)c1cc(F)cc(F)c1)C(=O)N[C@@H]1C(=O)N(C)c2ccccc2-c2ccccc21
[1]
  Potency: inconclusive: 23.5 µM [cytotoxic, partial curve]
[2]
  Potency: inconclusive: 37.2 µM [cytotoxic, partial curve, poor fit]
[8]
  Potency: inconclusive: 0.0526 µM [cytotoxic, full curve, poor fit]
[3]
  Potency: inconclusive: 2.96 µM [cytotoxic, partial curve]
[4]
  Potency: inconclusive: 21.5 µM [cytotoxic, partial curve]
[5]
  Potency: inconclusive: 2.35 µM [cytotoxic, full curve]
[6]
  Potency: inactive
[7]
  Potency: inactive

## CC1(C)NC(=O)N(c2ccc([N+](=O)[O-])c(C(F)(F)F)c2)C1=O
[1]
  Potency: inconclusive: 2.35 µM [cytotoxic, full curve, poor fit]
[2]
  Potency: inconclusive: 26.4 µM [cytotoxic, single point]
[9]
  Potency: inconclusive: 24.3 µM [cytotoxic, partial curve, poor fit]
[3]
  Potency: inactive
[6]
  Potency: inactive
[7]
  Potency: inconclusive: 19.5 µM [cytotoxic, single point] and inconclusive: 24.3 µM [cytotoxic, single point]

## Cc1[nH]c(=O)c(C#N)cc1-c1ccc2nccn2c1
[1]
  Potency: inconclusive: 29.6 µM [cytotoxic, single point]
[2]
  Potency: inconclusive: 29.6 µM [cytotoxic, single point]
[3]
  Potency: inconclusive: 23.5 µM [cytotoxic, partial curve]
[5]
  Potency: inconclusive: 4.18 µM [cytotoxic, full curve]
[7]
  Potency: inconclusive: 17.2 µM [cytotoxic, partial curve]

## Cc1csc(NC(=O)c2sc3nc4c(c(C(F)(F)F)c3c2N)CCC4)n1
[1]
  Potency: active: 1.18 µM
[9]
  Potency: active: 8.63 µM
[3]
  Potency: inactive
[4]
  Potency: inconclusive: 24.1 µM [cytotoxic, partial curve]
[7]
  Potency: inactive

## O=C(Nc1ccc([N+](=O)[O-])cc1Cl)c1cc(Cl)ccc1O
[1]
  Potency: inconclusive: 9.2 µM [cytotoxic, single point] and active: 4.69 µM
[9]
  Potency: active: 1.69 µM and active: 1.37 µM
[10]
  Potency: inconclusive: 1.16 µM [cytotoxic, full curve] and inconclusive: 1.48 µM [cytotoxic, full curve]
[6]
  Potency: active: 1.3 µM and active: 935 nM

## O=C(CCCN1CCC(O)(c2ccc(Cl)cc2)CC1)c1ccc(F)cc1
[1]
  Potency: inconclusive: 29.6 µM [cytotoxic, single point]
[2]
  Potency: inconclusive: 33.5 µM [cytotoxic, partial curve, poor fit]
[5]
  Potency: inactive
[6]
  Potency: inconclusive: 37.2 µM [cytotoxic, single point] and inconclusive: 23.7 µM [cytotoxic, single point]
[7]
  Potency: inconclusive: 27.3 µM [cytotoxic, single point] and inconclusive: 19.5 µM [cytotoxic, partial curve, poor fit]

## CC(=O)SCC(CC(=O)c1ccc(C)cc1)C(=O)O (centres undefined)
[1]
  Potency: inactive
[9]
  Potency: inactive
[8]
  Potency: inactive
[3]
  Potency: inconclusive: 13.3 µM [cytotoxic, partial curve]
[4]
  Potency: inactive

## Cc1c(N)c(=O)n(-c2ccccc2)n1C
[1]
  Potency: inactive
[9]
  Potency: inactive

## CCCS(=O)c1ccc2nc(NC(=O)OC)[nH]c2c1 (centres undefined)
[1]
  Potency: inconclusive: 33.5 µM [cytotoxic, single point]
[9]
  Potency: inconclusive: 21.9 µM [cytotoxic, single point] and inconclusive: 21.7 µM [cytotoxic, partial curve]
[8]
  Potency: inconclusive: 29.9 µM [cytotoxic, single point]
[3]
  Potency: inconclusive: 5.9 µM [cytotoxic, partial curve]
[4]
  Potency: inconclusive: 24.4 µM [cytotoxic, single point] and inconclusive: 24.1 µM [cytotoxic, partial curve]
[5]
  Potency: inconclusive: 5.26 µM [cytotoxic, full curve]
[6]
  Potency: inconclusive: 20.9 µM [cytotoxic, partial curve]
[7]
  Potency: inconclusive: 11 µM [cytotoxic, partial curve] and inconclusive: 27.3 µM [cytotoxic, single point]

## CO[C@H]1C(=O)[C@]2(C)[C@@H](OC)C[C@H]3OC[C@@]3(OC(C)=O)[C@H]2[C@H](OC(=O)c2ccccc2)[C@]2(O)C[C@H](OC(=O)[C@H](O)[C@@H](NC(=O)OC(C)(C)C)c3ccccc3)C(C)=C1C2(C)C
[1]
  Potency: active: 0.001 µM
[9]
  Potency: inconclusive: 0.0137 µM [cytotoxic, full curve]
[8]
  Potency: inconclusive: 0.001 µM [cytotoxic, full curve, poor fit]
[3]
  Potency: active: 0.001 µM
[7]
  Potency: inconclusive: 0.0153 µM [cytotoxic, full curve]

## O=C1NC(=O)C(=Cc2ccc(-c3ccc(F)cc3O)o2)S1
[1]
  Potency: inconclusive: 37.2 µM [cytotoxic, single point]
[9]
  Potency: inconclusive: 7.69 µM [cytotoxic, partial curve]
[10]
  Potency: inconclusive: 14.8 µM [cytotoxic, partial curve]
[3]
  Potency: inconclusive: 18.7 µM [cytotoxic, partial curve]
[4]
  Potency: inconclusive: 27.1 µM [cytotoxic, partial curve]
[7]
  Potency: inconclusive: 3.85 µM [cytotoxic, partial curve, poor fit]

## CCCCC/C=C\C/C=C\CCCCCCCC(=O)NC(C)c1ccccc1 (centres undefined)
[1]
  Potency: inconclusive: 26.6 µM [cytotoxic, single point]
[9]
  Potency: inconclusive: 19.5 µM [cytotoxic, partial curve, poor fit]
[8]
  Potency: inactive
[3]
  Potency: inconclusive: 26.6 µM [cytotoxic, single point]
[4]
  Potency: inconclusive: 34.4 µM [cytotoxic, partial curve, poor fit]
[7]
  Potency: inconclusive: 19.5 µM [cytotoxic, partial curve]

## O=c1cc(-c2ccccc2)oc2ccccc12
[1]
  Potency: inconclusive: 60.5 µM [cytotoxic, single point]
[9]
  Potency: inconclusive: 31.4 µM [cytotoxic, partial curve, poor fit]
[10]
  Potency: inconclusive: 24.1 µM [cytotoxic, partial curve, poor fit]
[3]
  Potency: inconclusive: 76.2 µM [cytotoxic, single point]
[5]
  Potency: inconclusive: 38.2 µM [cytotoxic, partial curve, poor fit]
[7]
  Potency: inconclusive: 19.8 µM [cytotoxic, partial curve, poor fit]

## Oc1ccc(C=Cc2cc(O)cc(O)c2)cc1
[1]
  Potency: inconclusive: 9.35 µM [cytotoxic, partial curve]
[8]
  Potency: inconclusive: 23.5 µM [cytotoxic, partial curve]
[10]
  Potency: inactive
[4]
  Potency: inconclusive: 42.9 µM [cytotoxic, single point]
[5]
  Potency: active: 20.9 µM
[7]
  Potency: inconclusive: 27.3 µM [cytotoxic, single point]

## COC(=O)C1=C(C)NC(C)=C(C(=O)OCC(C)=O)C1c1ccccc1[N+](=O)[O-] (centres undefined)
[1]
  Potency: inconclusive: 16.8 µM [cytotoxic, partial curve]
[9]
  Potency: inconclusive: 43.7 µM [cytotoxic, partial curve, poor fit]
[8]
  Potency: inconclusive: 23.7 µM [cytotoxic, single point]
[3]
  Potency: inconclusive: 21.1 µM [cytotoxic, partial curve]
[4]
  Potency: inconclusive: 27.3 µM [cytotoxic, single point]
[5]
  Potency: inconclusive: 23.7 µM [cytotoxic, single point]
[7]
  Potency: inconclusive: 34.7 µM [cytotoxic, partial curve, poor fit]

## CC(=O)N(C)C1(c2ccccc2)CCN(CCC[C@]2(c3ccc(Cl)c(Cl)c3)CCCN(C(=O)c3ccccc3)C2)CC1
[1]
  Potency: inconclusive: 18.7 µM [cytotoxic, partial curve, poor fit]
[8]
  Potency: inconclusive: 16.6 µM [cytotoxic, partial curve]
[10]
  Potency: inconclusive: 23.5 µM [cytotoxic, single point]
[3]
  Potency: active: 33.2 µM
[4]
  Potency: inconclusive: 34.1 µM [cytotoxic, single point]
[5]
  Potency: active: 23.5 µM
[7]
  Potency: active: 27.3 µM
